{"source": "the RNAGym collection of RNA variant scans (doi:10.7554/elife.90254)", "parents": {"B1": {"name": "OR4K15 (parent)", "chain": "GUUAACGGUCAUAGGCCAUGGAAACUAGGAGCACCAUUUCGCUGCCAGUGAAGAAAUGAACAAAGAAAAUCUGGGCCAGGCAGGCAUCAAAAGAAAUAGUCUUGCGCUCAACCAGAAAGUCUGUAAUCAUUUUAAGGGUA"}}, "note": "Read counts are not given, so values of variants with three or more changes are uncertain.", "data": [{"variants_of": "B1", "assay": "self-cleavage, relative activity (ratio to wild type); higher = more cleavage; in vitro, sequencing; the parent is a self-cleaving ribozyme", "values": [{"variant": "GUUAACGGUCAUAGGCCAUGGAAACCAGGAGCACCAUUUCGCUGCCAGUGAAGAAAGGAACAGAGAAAAUCUGGGCCAGGCAGGCAUCAAAAGAAAUAGUCUUGCGCUCAACCAGAAGGUCUGUAAUCAUCUUAAGGGUA", "self-cleavage": 0.86}, {"variant": "GUUAACGGACAUAGGCCAUGGAAACUAGGAGCACCAUUUCGCUGCCAGUGAAGAAAUGAACAAAGAAAAUCUGGGCCAGGCAGGCAUCAAAAGAAAUAGUCAUGCACUCAACCAGAAAGUCUGUAAUCACUUUAAGGGUA", "self-cleavage": 0.01}, {"variant": "GUUGACGGUCAUAGGCCAUGGAAACUAGGAGCACCAUUUCGCUGCCAGUGAAGGAGUGAACAAAGGAAAUCUGGGCCGGGCAGGCAUCAAAAGAAAUAGUCUUGCACUCAACCAGAAAGUCUGUAACCAUUUUUAGGGUA", "self-cleavage": 0.02}, {"variant": "GUUAACGGUCAUUGGCCAUGGAGACUAGGAGCACCAUCUCGCUGCCAGUGAAGAAAUGAACAAAGAAAAUCUGGGCCAGGCAGGCAUCAAAAGAAAUGGUCUUGCGCUCAACCAGAAAGUCCGUAAUCAUUUUAAGGGUA", "self-cleavage": 1.26}, {"variant": "GUUAACGGUCAUAGGCCAUGGAAACUAGGAGCACCAUUUCGCUGCCAGUGAAGAAAUGUACAGAGAAAAUCUGGGCCAGGCAGGCAUCAAAAGAAAUAGUCCUGCGCUCAACCAGAAAGUCUGUAAUCAUUUUAAGGGUA", "self-cleavage": 1.48}, {"variant": "GUUAACGGUCGUAGGCCAUGGAAACUAGGAGCACCAUUCCGCUGCCAGUGAAGAAAUGAACAAAGAAAAUCUGGGCCAGGCAGGCAUCAAAAGAAAUAGUCUUGCGCUCAACCAGAAAGUCUGUAAUCAUUUUAAGGGUG", "self-cleavage": 0.95}, {"variant": "GUUAACGGUCAUAGGCCAUGGAAACUAGGAGCACCAUUUCGCUGCCAGUGAAGAAAUGAACAAAGAAGAUCUGGGCCUGGCAGGCAUCAAAAGUGAUAGUCUUGCGCCCAACCAGAAAGUCUGUAGUCUUUUUAAGGGUA", "self-cleavage": 0}, {"variant": "GUUAACGGUCAUAGGCCAUGGAAACUAGGAGCACCAUUUCGCUGCCUGUGAAGAAGUGAACAAAGAAAAUCUGGGCCAGGCAGGCAUCUAAAGAAAUAGUCUUGCGCUCAACCAGAGAGUCUGUAAUCAUUUUAAGGGUA", "self-cleavage": 1.11}, {"variant": "GUUAACGGUCAUAGGCCAUGGAAACUAGGAGCACCAUUUCGCUGCCAGUGAAGAAAUGAACAAAGAAAAUCUGGGCCAGGCAGGCAUCAAAAGAAGUAGUCUUGCGCUCAGCCAGAAAGCCUGUAAUCACUUUAAGGGUA", "self-cleavage": 0}, {"variant": "GAUAACGGUCAUAGGCCAUGGAAACUAGGAGCACCAUUUCGCUGCCAGUGAAGAAAUGAACGAAGAAGAUCUGGGCCAGGCAGGCAUCAAAAGAAAUAGUCUUGCGCUCAGCCAGAAAGUCUGUAAUCAUUUUAAGGGUA", "self-cleavage": 0.05}, {"variant": "GUUAACGGUCAUAGGUCAUGGAAACUAGGAGCACCAUUUUGCUGCCAGUGAGGAAAUGAACAGAGAAAAUCUGGGCCAGGCAGGCAUCAAAAGAAAUAGUCUUGCGCCCAACCAGAAAGUCUGUAAUCAUUCUAAGGGUA", "self-cleavage": 0.04}, {"variant": "GUUAACGGUCAUAGGCCAUGGAAACUAGGAGCACCACUUCGCUGCCAGUGAAGAAACGAACAAAGAAAGUCUGGGCCAGGCAGGCAUCAAAAGAAAUAGUCUUGCGCUCAACCAGAAAGUCUGUAAUCAUUUUAAGGGUA", "self-cleavage": 1.02}, {"variant": "GUUAACGGUCAUAGGCCAUGGAAACUAGGAGCACCAUUCCGCUGCCAGUGGGGAAAUGAACAAAGAAAAUCUGGGCCAGGCAGGCAUCAAAAGAAAUAGUCUUGCGCUCAACCAGAAAGUCUGUAAUCAUUUUAAGGGUA", "self-cleavage": 0.76}, {"variant": "GUUAACGGUCAUAGGCCAUGGAAACUAGGAGCACCAUUUCGCUGCCAGUGAAGAAAAGAACAAAGAAAAUCCGGGCCAGGCAGGCAUCAAAAGAAAUAGUCUUGCGCUCAACCAGAGAGUCCGCAAUUAUUUUAAGGGUA", "self-cleavage": 0.02}, {"variant": "GUUAACGGUCAUAGGCCAUGGAAACUAGGAGCACCAUUUCGCUGCCAGUGGGGAAAUGAACAAAGAAAAUCUGGACCAGGCAGGCAUCAAGAGAAAUGGUCUUGCGCCCAACCAGGAAGUCUGUAAUCAUUUUAAGGGUA", "self-cleavage": 0.04}, {"variant": "GUGAACGGUCAUAGGCCAUGGAAGCUAGGAGCACCAUUUCGCUGCCAGUGAAGAAAUGAACAAAGAAAAUCCGGGCCAGGCAGGCAUCAAAAGAAAUAGUCUUGCGCUCAACCAGAAAGUCUGUAAUCAUUUUAAGGGUA", "self-cleavage": 0.41}, {"variant": "GUUAACGGUCAUAGGCCAUGGAAACUAGGAGCACCAUUUCGCUGCCAGUGGGGAAAUGAACAAAGAAAAUCUGGGCCAGGCAGGCAUCAAAAGAAAUAGUCUUGCGCUCAACCAGAAAGUCUGCAAUCAUUUUAAGGGUA", "self-cleavage": 0.7}, {"variant": "GUUAACGGUCAUGGGCCAAGGAAGCUAGGAGCACCAUUUCGCUGCCAGUGAAGACAUGAGCAAAGGAAAUCUGGGCCAGGCAGGCAUCAAAAGAAAUAGUCUUGCGCUCAACCAGAAAGUCUGUAAUCAUUUUAAGGGUA", "self-cleavage": 1.24}, {"variant": "GUCAACGGUCAUAGGCCAUGGAAACCAGGAGCACCAUUUCGCUGCCAGUGAAGAAAUGAACAAAGAAAAUCUGGGCCUGGCAGGCAUCAAAGGAAAUAGUCUAGCGCUCAACCAGAAAGUCUGUAAUCAUUUUAAGGGUA", "self-cleavage": 0.09}, {"variant": "GUUAGCGGUCAUAGGCCAUGGGAACUAGGAGCACCAUUUCGCUGCCAGUGAAGAAAUGAACAAAGAAAAUCUGGGCCAGGCAGGCAUCAAAAGAAAUAGUCUUGCGCUCAACCAGGAAGUCUGUAAUCAUUUUAAGGGUA", "self-cleavage": 1.04}, {"variant": "GUUAACGGUCAUAGGCCAUGGAAACUAGGAGCGCCAUUUCGCUGCCAGUGAAGAAAUGAACAAAGAAAAUCUGGGCCAGGCAGGCAUCAAAAGAAAUAGUCUUGCGCUCAACCAGAUAGUCUGGAAUCAUUUUAAGGGUA", "self-cleavage": 0.06}, {"variant": "GUUAACGGUCGUAGGCCACGGAAACUAGGAGCACCAUUUCGCUGCCAGUGAAGAAAUGAACAAAGAAAAUCUGGGCCAGGCAGGCAUCAAAAGAAAUAGUCUAGCGCUCAACCAGAAAGUCUGUAAUCAUUUUAAGGGUA", "self-cleavage": 0.5}, {"variant": "GUUAACGGUCAUAGGCCAUGGAAGCUAGGAGCACCAUUUCGCUGCCAGUGAAGAAAUGAACAAAGAAAAUCUGGGCCAGGCAGGCAUCAUGAGAAAUAGUCUCGCGCUCAACCAGAAAGUCUGUAAUCAUUUUAAGGGUA", "self-cleavage": 0.95}, {"variant": "GUUAACGGUCAUAGGCCAUGGAAACUAGGAGCACCAUUUCGCUGCCAGUGAAGAAAUGAACAUAGUAAAUCUGGGCCAGGCAGGCAUCAAAAGAAAUAGUCUUGCGCUCAACCAGAAAGUCUGUAAUCAUUCUAAGGGUA", "self-cleavage": 0.55}, {"variant": "GUUAACGGUCAUAGACCAUGGAAACUAGGAGCACCAUUUCGCUGCCAGUGAAGAGAUGAACAAAGAAAAUCUGGGCCAGGCAGGCAUCAAAAGAAAUAGUCUUGCGCUCAACCAGGAAGUCUGUAAUCAUUUUAAGGGUA", "self-cleavage": 0.29}, {"variant": "GUUAACGGUCAUAGGCCAUGGAAACUAGGAGCACCAUUUCGCUGCCAGUGAAGAGGUGAACAGAGAAAAUCUGGGCCAGGCAGGCAUCAAAAGAAAUAGUCCUGCGCUCAGCCAGAAAGUCUGUAAUCAUUUUAAGGGUA", "self-cleavage": 0.05}, {"variant": "GUUAACGGUCAUAUGCCAUGGAAACUAGGAGCACCAUUUCGCUGCCAGUGAAGAAAUGAACAGAGAAAAUCUGGGCCGGGCAGGCAUCAAAAGAAAUAGUCUUGCGCUCAACCAGAAAGUCUGUUAUCAUUUUAAGGGUA", "self-cleavage": 0.24}, {"variant": "GUUAACGGUCAUAGGCCAUGGGAACUAGGGGCACCAUUUCGCUGCCAGUGAAGAAAUGAACAAGGAAAAUCUGGGCCAGGCAGGCAUCAAAGGAAAUAGUCUUGCGCUCAACCAGAAAGUCUGUAAUCAUUUUAAGGGUA", "self-cleavage": 1.25}, {"variant": "GUUAACGGUCAUAGGCCAUGGAAACUAGGAGCACCACUUCGCCGCCAGUGAAGAGAUGAACAAAGAAAAUCUGGGCCAGGCAGGCAUCAAAAGAAAUAGUCUUGCGCUCAACCAGAAAGUCUGUAAUCAUUUUAAGGGUA", "self-cleavage": 1.4}, {"variant": "GUUAACGGUCAUAGGCCAUGGAAACUAGGAGCACCAUUUCGCUGCCAGUGAGGAAAUGAACAAAGAAAAUCUGGGCCGGGCAGGCAUCAGAAGAAAUAGUCUUGCGCUCAACCAGAAUGUCUGUAAUCAUUUUAAGGGUA", "self-cleavage": 0.2}, {"variant": "GUUAACGGUCAUAGGCCAUGGAAACUAGGAGCACCUUUUCGCUGCCAGUGAAGAAACGAACAAAGAAAAUCUGGGCCAGGCAGGCAUCAAAAGAAAUAGUCUUGCGCUCGACCAGAAAGUCUGUAAUCAUUUUAAGGGUA", "self-cleavage": 0.15}, {"variant": "GUUAACGGUCACAGGCCAUGGUAACUAGGAGCACCAUUUCGCUGCCAGUGAAGAAAUGAACAAAGAAAAUCUGGGCCAGGCAGGCAUCAAAGGAAAUAGUCUUGCGCUCAACCAGAAGGUCUGUAAUCAUUUUAAGGGUA", "self-cleavage": 0.48}, {"variant": "GUUAACGGUCAUGGGCCAUGGAAGCUAGGAGCACCAUUUCGCCGCCAGUGAAGAAAUGAACAAAGAAAAUCUGGGCCAGGCAGGCAUCAAAAGAAAUAGUCUUGCGCUCAACCAGAAAGUCUGUAAUCAUUUUAAGGGUA", "self-cleavage": 1.25}, {"variant": "GUUAACGGUCAUAGGCCAUGGAAACUAGGAGCACCAUUUCGCUGCCAGUGAAGAAAUGAACAAAGAAAAUCUGGGCCAGGCAGGCGUCAAAAGAAAUAGUCUUGCGCUCAACCAGAAAGUCUGUAACCAUUUUAAGGGUG", "self-cleavage": 0.99}, {"variant": "GUUAACGGUCAUAGGCCAUGGAAACUAGGAGCACCAUUUCGCUGCCCGUGAAGAAAUGAACAAGGAAAGUCUGGGCCAGGCAGGCAUCAAAAGAAAUAGUCUUGCGCACAACCAGAAAGUCUGUAAUCAUUUUAAGGGUA", "self-cleavage": 0.01}, {"variant": "GCUAACGGUCAUAGGCCAUGGAAACUAGGAGCACCAUUUCGCUGCCAGUGAAGAAAUGAACCAAGAAAAUCCGGGCCAGGCUGGCAUCAAAAGAAAUAGUCCUGCGCUCAACCAGAAAGUCUGUAAUCAUUUUAAGGGUA", "self-cleavage": 0.4}, {"variant": "GUUAACGGUCAUAGGCCAUGGAAACUAGGAGCGCCAUGUCGCUGCCAGUGAAGAAAUGAACAAAGAAAAUCUGGGCCAGGCUGGCAUCAAAAGAAAUAGUCUUGCGCUCAACCAGAAAGUCUGUAAUCAUUUUAAGGGUA", "self-cleavage": 0.06}, {"variant": "GUUAACGGUCAUAGGCCAUGGAAACUAGGAGCACCAUCUCGCUGCCAGUGAAGAAAUGAACAUAGAAAAUCUGGGCCAGGCAGGCAUCAAAAGAAAUAGUCUUGCGCUCAACCAGAAAGUCUGUGAUCAUUUUAAGGGUA", "self-cleavage": 0.59}, {"variant": "GUUAACGGUCAUAGGCCAUGGAAACUAGGAGCACCAUUUCGCUGCCAGUGAAGGAACGAACAAAGAAAAUCUGGGCCAGGCAGGCAUCAGAAGAAAUAGUCUUGCGCUCAACCAGAAAGUCUGUAAUCAUUUUAAGGGUA", "self-cleavage": 0.52}, {"variant": "GUUAACGGCCAUAGGCCAUGGAAACUAGGAGCACCAUUUCGCUGCCAGUGAAGAAAUGAACAAAGAAAAUCUGGGCCAGGCAGGCAUCGAAAGAAAUCGUCUUGCGCUCAACCAGAAAGUCUGUAAUCAUUUUAAGGGUA", "self-cleavage": 1.18}, {"variant": "GUUAACGGUCAUAGGCCGUGGAAACUAGGAGCACCAUUUCGCUGCCAGUGAAGAAAUGAUCAAAGAAAAUCUGGGCCAGGCAGGCAUCAAAAGAAAUAGUCUUGCGCUCAACCAGAAAGUCUGUAAUCAUUCUAAGGGUA", "self-cleavage": 2.15}]}]}
